This is one part of the list. The energies were worked out here from pooled read counts, against the library average; single values are noisy.
These sequences were tested against T1, Pho4 (S. cerevisiae) (UniProt P07270) (assay: relative binding free energy (BET-seq); higher = weaker binding). Settings: reference: library average.
T1 sequence: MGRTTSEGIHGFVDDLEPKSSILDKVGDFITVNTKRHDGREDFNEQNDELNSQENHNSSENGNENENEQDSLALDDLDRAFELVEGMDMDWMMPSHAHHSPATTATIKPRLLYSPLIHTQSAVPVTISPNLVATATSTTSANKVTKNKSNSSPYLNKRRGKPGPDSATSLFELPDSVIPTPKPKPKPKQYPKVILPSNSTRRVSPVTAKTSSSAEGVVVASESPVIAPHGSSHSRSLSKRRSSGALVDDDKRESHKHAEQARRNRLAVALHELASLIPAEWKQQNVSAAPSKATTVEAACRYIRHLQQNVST
AACGGCACGTGTGGTG was tested, and the “relative binding free energy” value was 0.03 kcal/mol.
GGCCTCACGTGGGGAT was tested, and the “relative binding free energy” value was 0.11 kcal/mol.
For AGCTACACGTGTTGTT, the “relative binding free energy” value was 0.18 kcal/mol.
In the case of CGAGGCACGTGTTTTT, the “relative binding free energy” value is reported as -0.08 kcal/mol.
In the case of TGTGTCACGTGTTCAG, the “relative binding free energy” value is reported as 0.02 kcal/mol.
For TTCATCACGTGGAAGT, the “relative binding free energy” value was 0.25 kcal/mol.
With TAGGTCACGTGGAAGT the “relative binding free energy” value was 0.2 kcal/mol.
With AGTGTCACGTGACACG the “relative binding free energy” value was 0.29 kcal/mol.
With TTAGTCACGTGGTGAC the “relative binding free energy” value was 0.08 kcal/mol.
In the case of GTTGACACGTGCGTCG, the “relative binding free energy” value is reported as 0.04 kcal/mol.
In the case of GGTTTCACGTGGGAGG, the “relative binding free energy” value is reported as 0.33 kcal/mol.
In the case of AGGGGCACGTGGTCCT, the “relative binding free energy” value is reported as -0.28 kcal/mol.
With TTTTTCACGTGAGCGG the “relative binding free energy” value was 0.32 kcal/mol.
In the case of TATAACACGTGATTGG, the “relative binding free energy” value is reported as 0.16 kcal/mol.
In the case of AAAATCACGTGGTATA, the “relative binding free energy” value is reported as 0.13 kcal/mol.
For GGTTTCACGTGGTCGT, the “relative binding free energy” value was 0.27 kcal/mol.
With TATAACACGTGATTTA the “relative binding free energy” value was 0.01 kcal/mol.
In the case of GGGTCCACGTGGGTGT, the “relative binding free energy” value is reported as -0.07 kcal/mol.
With GAGTACACGTGGGGGG the “relative binding free energy” value was -0.01 kcal/mol.
In the case of TTAAGCACGTGACGTG, the “relative binding free energy” value is reported as -0.02 kcal/mol.
With TGATGCACGTGCTGTC the “relative binding free energy” value was -0.02 kcal/mol.
CGTAGCACGTGGTCGG was tested, and the “relative binding free energy” value was -0.15 kcal/mol.
With ATAGTCACGTGCTGAG the “relative binding free energy” value was 0.12 kcal/mol.
For AGAAGCACGTGTGGGT, the “relative binding free energy” value was 0.06 kcal/mol.
CTATGCACGTGTGAAG was tested, and the “relative binding free energy” value was 0.06 kcal/mol.
In the case of TCTTTCACGTGTCGTT, the “relative binding free energy” value is reported as 0.11 kcal/mol.
For TGTGGCACGTGATACT, the “relative binding free energy” value was -0.03 kcal/mol.
For GGTTTCACGTGGCAGA, the “relative binding free energy” value was 0.16 kcal/mol.
In the case of GGTGTCACGTGGTTAT, the “relative binding free energy” value is reported as 0.23 kcal/mol.
In the case of GCGTGCACGTGAAGGG, the “relative binding free energy” value is reported as 0.22 kcal/mol.
In the case of GGGCCCACGTGGCTGG, the “relative binding free energy” value is reported as -0.11 kcal/mol.
In the case of TTGTACACGTGGGCTA, the “relative binding free energy” value is reported as -0.11 kcal/mol.
For TCGAGCACGTGGAGTG, the “relative binding free energy” value was -0.08 kcal/mol.
ATAGCCACGTGATGTG was tested, and the “relative binding free energy” value was -0.04 kcal/mol.
In the case of AGTGGCACGTGCTAGT, the “relative binding free energy” value is reported as -0.28 kcal/mol.
For TTGGTCACGTGGCGCG, the “relative binding free energy” value was 0.01 kcal/mol.
TTGTCCACGTGATGTT was tested, and the “relative binding free energy” value was 0.24 kcal/mol.
With TACTTCACGTGGTGAT the “relative binding free energy” value was 0.29 kcal/mol.
For AATTTCACGTGAGGTC, the “relative binding free energy” value was 0.38 kcal/mol.
TTTCGCACGTGTAGAT was tested, and the “relative binding free energy” value was 0.21 kcal/mol.
In the case of GGGGGCACGTGATACG, the “relative binding free energy” value is reported as 0.06 kcal/mol.
With TGGCCCACGTGGGGTG the “relative binding free energy” value was -0.13 kcal/mol.
For GCTGACACGTGAGGTG, the “relative binding free energy” value was 0.28 kcal/mol.
TGAGTCACGTGGGTTT was tested, and the “relative binding free energy” value was 0 kcal/mol.
For GCTTTCACGTGTGAGG, the “relative binding free energy” value was 0.37 kcal/mol.
For TGGCACACGTGGGAGT, the “relative binding free energy” value was -0.15 kcal/mol.
For CGAGGCACGTGAGTAT, the “relative binding free energy” value was 0.03 kcal/mol.
For ACGGTCACGTGAATGG, the “relative binding free energy” value was 0.33 kcal/mol.
AGGGACACGTGGTAAG was tested, and the “relative binding free energy” value was 0 kcal/mol.
In the case of TATTTCACGTGGCTGG, the “relative binding free energy” value is reported as 0.25 kcal/mol.
For CATAACACGTGGTGGT, the “relative binding free energy” value was -0.17 kcal/mol.
ATCTTCACGTGGCTGT was tested, and the “relative binding free energy” value was 0.2 kcal/mol.
For TAAAGCACGTGTAGGT, the “relative binding free energy” value was -0.11 kcal/mol.
For CTATGCACGTGAGGGG, the “relative binding free energy” value was 0.15 kcal/mol.
TTGTGCACGTGGTCTT was tested, and the “relative binding free energy” value was -0.07 kcal/mol.
With GGCTTCACGTGTGTTG the “relative binding free energy” value was 0.37 kcal/mol.
GGTTTCACGTGTCAGT was tested, and the “relative binding free energy” value was 0.35 kcal/mol.
In the case of GGGTTCACGTGTGCCT, the “relative binding free energy” value is reported as 0.15 kcal/mol.
In the case of ATTACCACGTGATTTT, the “relative binding free energy” value is reported as 0.1 kcal/mol.
TTTAACACGTGGGAAC was tested, and the “relative binding free energy” value was 0.19 kcal/mol.
For TCACTCACGTGGTGGG, the “relative binding free energy” value was 0.22 kcal/mol.
With CGGCTCACGTGTGCGT the “relative binding free energy” value was 0.27 kcal/mol.
GAGGTCACGTGTCTTG was tested, and the “relative binding free energy” value was 0.13 kcal/mol.
With ATTTGCACGTGTTTTT the “relative binding free energy” value was 0.03 kcal/mol.
With TATTGCACGTGTATGA the “relative binding free energy” value was -0.05 kcal/mol.
For TATCTCACGTGTGTAG, the “relative binding free energy” value was 0.36 kcal/mol.
GGGGTCACGTGAAAGG was tested, and the “relative binding free energy” value was 0.28 kcal/mol.
In the case of GTTGGCACGTGCGTGG, the “relative binding free energy” value is reported as -0.18 kcal/mol.
With AGGGGCACGTGTCGAT the “relative binding free energy” value was -0.07 kcal/mol.
AGAGGCACGTGGGCTT was tested, and the “relative binding free energy” value was -0.12 kcal/mol.
For TATATCACGTGGCTTG, the “relative binding free energy” value was -0.03 kcal/mol.
With AGTGGCACGTGCTGAA the “relative binding free energy” value was -0.15 kcal/mol.
CGGAGCACGTGGGTCT was tested, and the “relative binding free energy” value was -0.2 kcal/mol.
AGGTGCACGTGTCTAT was tested, and the “relative binding free energy” value was 0 kcal/mol.
With AAATGCACGTGGGGCA the “relative binding free energy” value was -0.12 kcal/mol.
With TCATTCACGTGTTTGA the “relative binding free energy” value was 0.29 kcal/mol.
TTAGGCACGTGAGGTG was tested, and the “relative binding free energy” value was 0.09 kcal/mol.
For TGTGACACGTGTGCGT, the “relative binding free energy” value was -0.05 kcal/mol.
In the case of ATGACCACGTGGGGGG, the “relative binding free energy” value is reported as -0.18 kcal/mol.
With GGCGGCACGTGTGATA the “relative binding free energy” value was 0.04 kcal/mol.
TTGTGCACGTGGCGGT was tested, and the “relative binding free energy” value was -0.14 kcal/mol.
With GTGGGCACGTGTAGCT the “relative binding free energy” value was -0.04 kcal/mol.
With ATTGTCACGTGTTATC the “relative binding free energy” value was 0.05 kcal/mol.
AGGAGCACGTGTGGTC was tested, and the “relative binding free energy” value was -0.13 kcal/mol.
TGTTACACGTGGATGA was tested, and the “relative binding free energy” value was 0.08 kcal/mol.
For GTGGCCACGTGGTAAT, the “relative binding free energy” value was 0.05 kcal/mol.
In the case of GGGTGCACGTGTAGAA, the “relative binding free energy” value is reported as 0.09 kcal/mol.
AGTGGCACGTGGTGAC was tested, and the “relative binding free energy” value was -0.14 kcal/mol.
For TGTGTCACGTGGTGTG, the “relative binding free energy” value was 0.06 kcal/mol.
For CGCGTCACGTGTGGAT, the “relative binding free energy” value was 0.12 kcal/mol.
With GTGGGCACGTGCTCGG the “relative binding free energy” value was -0.26 kcal/mol.
GTGTTCACGTGATCTG was tested, and the “relative binding free energy” value was 0.2 kcal/mol.
In the case of ATGGACACGTGTTTGA, the “relative binding free energy” value is reported as 0.08 kcal/mol.
For GGAGGCACGTGCAGTA, the “relative binding free energy” value was -0.07 kcal/mol.
CAAGGCACGTGTATTT was tested, and the “relative binding free energy” value was 0.03 kcal/mol.
TGGTACACGTGTCGAG was tested, and the “relative binding free energy” value was 0.1 kcal/mol.
In the case of GTAAGCACGTGGGCGG, the “relative binding free energy” value is reported as -0.17 kcal/mol.
For TGACGCACGTGGTGAT, the “relative binding free energy” value was -0.11 kcal/mol.
GTGGGCACGTGACTGG was tested, and the “relative binding free energy” value was 0.09 kcal/mol.
In the case of GGTAGCACGTGTTTAG, the “relative binding free energy” value is reported as -0.03 kcal/mol.
In the case of TGGGTCACGTGCACTG, the “relative binding free energy” value is reported as 0.08 kcal/mol.
In the case of CTGGTCACGTGGTTAT, the “relative binding free energy” value is reported as -0.04 kcal/mol.
In the case of TTCTACACGTGGAGGG, the “relative binding free energy” value is reported as -0.05 kcal/mol.
With GTTGACACGTGTTTCA the “relative binding free energy” value was 0.1 kcal/mol.
For TTGCACACGTGGTGGT, the “relative binding free energy” value was -0.01 kcal/mol.
For GGGAACACGTGGGAGA, the “relative binding free energy” value was -0.09 kcal/mol.
For GGGGTCACGTGCGAGG, the “relative binding free energy” value was 0.22 kcal/mol.
CTTGACACGTGTGGGA was tested, and the “relative binding free energy” value was 0.07 kcal/mol.
For TAGTGCACGTGACGTG, the “relative binding free energy” value was 0.1 kcal/mol.
AAGGGCACGTGTTACA was tested, and the “relative binding free energy” value was -0.02 kcal/mol.
In the case of TTTTGCACGTGTAAGG, the “relative binding free energy” value is reported as 0.14 kcal/mol.
With TTGTCCACGTGGTTAG the “relative binding free energy” value was 0.08 kcal/mol.
With GGGGCCACGTGAGCGT the “relative binding free energy” value was -0.03 kcal/mol.
For TTCTGCACGTGCTAGT, the “relative binding free energy” value was -0.01 kcal/mol.
TATATCACGTGGAGTC was tested, and the “relative binding free energy” value was 0.21 kcal/mol.

Source: the BET-seq Pho4 binding data (Le et al. 2018)
